Results as given in paper PMC5515408.
This is one part of the list. At the low end of the ranking, values are background and their order means little.

test system: MYC (p64) + MAX (p21), in MYC:MAX; experiment: protein-binding microarray (anti-MAX antibody); conditions: PBM: 15 mM Tris-HCl pH 7.5, 100 mM KCl, 0.075% NP40, 7.5 mM beta-mercaptoethanol, 375 ng/ul BSA, 8 ng/ul poly(dA-dT):(dA-dT), 550 ng complex, 60 min, room …; high values mean tight binding; double strand, one strand shown; sequences stand for … in CCGGC…TTAATAGCTAAGATTACTATATCGACG

Sequence | binding signal (log2 normalized fluorescence)
TGAAATTCCGTA | -0.0313
TGACTGCCGGTA | -0.0047
TGATGGAATGTA | 0.103
TGAAGACGAGTA | 0.063
TGAGTGACGGTA | 0.0946
TGATTAGCTGTA | -0.109
TGAGCTTAAGTA | -0.045
TGACTTATGGTA | 0.349
TGAGATTGCGTA | 0.0933
TGACAGGAGGTA | 0.255
TGACACGTGTCC | 0.926
TGACATGATGTA | 0.565
TGACAAAAAGTA | -0.123
TGATTTCAAGTA | -0.066
TCACACGTTTTA | 0.662
TGACCTGCAGTA | 0.156
TGACTGGTCGTA | 0.229
TGACACTTCGTA | 0.254
TGAATCCGCGTA | 0.159
TGATTCCGTGTA | -0.0723
TGAAAGACAGTA | -0.0398
TGAGACTATGTA | 0.0235
TGATACGAGGTC | 0.144

Sequence | binding signal (log2 normalized fluorescence)
TGAGACGTAATA | -0.082
TGTCACGTGTTC | 0.848
TGACCGGTGGTA | 0.139
TGGCACTGGGTA | 0.157
TGAAGGAGTGTA | 0.0321
TCACACGTGTTA | 0.827
TGAGCACTCGTA | 0.166
TATCACCTGGTA | 0.305
TGACGGTTCGTA | 0.0156
TGAGAGAGCGTA | 0.11
TTCCGCCCAGGT | 0.044
CGACACCTGTTA | 0.432
TGAACGAATGTA | 0.267
TGAGCCACGGTA | 0.281
TGAGAGCCTGTA | 0.173
TGATAGGTGGGA | 0.118
TGAAAATCGGTA | -0.137
TGATATTATGTA | -0.025
TGATTGTAGGTA | -0.0389
TGACACTAAGTA | 0.05
TGACCAGAAGTA | 0.0928
TGAGGGAAGGTA | -0.0621
TGAAGGAGAGTA | -0.0177

Sequence | binding signal (log2 normalized fluorescence)
TGATCCTGCGTA | -0.0923
TGATCACGCGTA | 0.482
TGAGCACACGTA | 0.338
TGACACGTGCGC | 0.633
TGAATGGCCGTA | 0.135
TGACCTGGAGTA | 0.0198
TGAATATTGGTA | -0.117
TGAGGTGGCGTA | -0.0184
TGAAGGATCGTA | -0.00561
TGATTCGACGTA | -0.0682
TGACTGAGAGTA | -0.185
TGAGCACCCGTA | 0.0892
TGACTCTCTGTA | 0.126
TTAGACGTGGTA | 0.235
TGATTTAGCGTA | -0.0372
TCACACCTCGTA | 0.481
TGAAGCGTAGTA | 0.11
TGAAACAGCGTA | 0.0539
TGAGCTGCCGTA | 0.0267
TGACCTCTGGTA | -0.0273
TGGCACGTGCTA | 0.722
TGAATAAACGTA | 0.257
TGACAACCGGTA | 0.0343

Sequence | binding signal (log2 normalized fluorescence)
TGACTGAAAGTA | -0.165
TGATGCTGCGTA | 0.0264
TGACGTGCCGTA | 0.15
TGATTTATAGTA | -0.149
TGATTTCGTGTA | 0.133
TGATGAGCGGTA | 0.0769
TGAATCTCAGTA | 0.0284
TGAAGACAGGTA | 0.261
TGAGACCTCGTA | 0.245
TGACTCAGAGTA | -0.0401
TGCCATGTGGTT | 0.633
CGCGACGTGGTA | 0.471
TGACCGATCGTA | 0.251
TGAAAAGGCGTA | 0.0557
TGAGTTACGGTA | 0.0922
TGGCATGTGGTA | 0.502
TGGCACGTGGTA | 0.809
TACGACGTGGTA | 0.466
TGACCAATCGTA | 0.0979
TGAATCACGGTA | 0.217
ATACACTTGGTA | 0.425
TGATTATACGTA | -0.0532
TGACCATTGGTA | 0.0788

Sequence | binding signal (log2 normalized fluorescence)
TGACACGACTTA | 0.373
TGACCTTCCGTA | 0.159
TGACATCCCGTA | 0.338
TGAGACCTGGTA | 0.103
TGACACGTGCTC | 0.813
TTACACGTGGAA | 0.667
TGAGCGGTAGTA | -0.134
TGATCTGTAGTA | -0.135
TGATCGGGCGTA | -0.25
TTTCCCGTGGTA | 0.301
TGAACGAAAGTA | 0.0903
TGACGAGAGGTA | 0.127
TGGAGCGTGGTA | 0.418
TGATTACCAGTA | -0.0812
TGACGCACTGTA | 0.457
TGATGACAGGTA | 0.0197
TGAGCGGGGGTA | 0.74
ATACACGTGGTA | 0.842
TAAGTGACGTAG | -0.0243
TGAAAAGTCGTA | -0.168
TGACTGTTAGTA | 0.0407
TGACATAGCGTA | 0.281
TGACACGACATA | 0.459

Sequence | binding signal (log2 normalized fluorescence)
TGAACATATGTA | 0.423
TGAATAGTCGTA | -0.124
TGAGAAATCGTA | -0.121
TGATGTTTTGTA | 0.192
GGAGCCGTGGTA | 0.182
TGACACGCGATC | 0.577
TGATAGATAGTA | -0.136
TGAGATCTCGTA | 0.0155
CGACACGGCGTA | 0.161
TGAGTGGCTGTA | 0.275
TGACAAAACGTA | 0.0336
TGAGTTGCAGTA | -0.0745
AGACACGAGGTA | 0.93
TGATATCCAGTA | 0.022
TGATATGGAGTA | -0.0756
TGAGGGGTTGTA | 0.368
TGAAATCCTGTA | 0.00511
TGATTATCTGTA | -0.165
TGATCCGTTGTA | 0.0506
TGAACCACCGTA | 0.213
TGATCACGTGTA | 0.717
TGATACCTGGTA | -0.151
TGAATTCCGGTA | -0.11
